Test results as given in the supplement of paper PMC12217912.
This is one part of the list. The full chains were built here from the parent and the listed change. Inactive controls read about 0.05.

B1: TEV protease; numbered along this chain (parent)
chain: MGESLFKGPRDYNPISSSICHLTNESDGHTTSLYGIGFGPFIITNKHLFRRNNGTLVVQSLHGVFKVKDTTTLQQHLVDGRDMIIIRMPKDFPPFPQKLKFREPQREERICLVTTNFQTKSMSSMVSDTSCTFPSGDGIFWKHWIQTKDGQCGSPLVSTRDGFIVGIHSASNFTNTNNYFTSVPKNFMELLTNQEAQQWVSGWRLNADSVLWGGHKVFMVKPEEPFQPVKEATQL

Variants of: B1
Assay: raw area under fraction-flipped curve 0-4 h after induction (AUC4h, not background-subtracted), DNA-recorder readout of cleavage of the substrate (dimensionless); higher = more cleavage of the substrate by the protease variant
Details: temperature: 34 °C; time window: 0-4 h after rhamnose induction
Experimental: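 In vivo DNA recorder in E. coli TOP10(DE3) ΔrhaA at 34 °C. Each TEVp single-site mutant (parent TEVp 0) is paired with a single-site variant of the 7-mer TEVs (canonical ENLYFQ|S). The substrate sits between flexible linkers in a Bxb1-sfGFP-TEVs-SsrA fusion, so cleavage stabilises Bxb1 and speeds flipping of a recombination array, read by NGS. The value is the raw area under the fraction-flipped curve over 0-4 h after rhamnose induction (AUC4h), with ≥20 reads per time point. It is not background-subtracted; inactive controls average about 0.047.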
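Note: Bxb1 expression induced with 0.2% (w/v) L-rhamnose at OD600 near 0.5, cultures sampled hourly, flipped fraction per protease–substrate barcode pair counted by paired-end Illumina sequencing.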

Variant | area with substrate ENLYFAS | area with substrate ENLYFCS | area with substrate ENLYFES | area with substrate ENLYFFS | area with substrate ENLYFHS | area with substrate ENLYFKS | area with substrate ENLYFTS | area with substrate ENLYFVS | area with substrate ENLYFWS | area with substrate ENLYFYS | area with substrate ENLYFDS | area with substrate ENLYFIS | area with substrate ENLYFNS | area with substrate ENLYFGS | area with substrate ENLYFPS | area with substrate ENLYFRS | area with substrate ENLYFSS | area with substrate ENLYFMS | area with substrate ENLYFLS
T176A | 0.0517 | 0.0504 | 0.0475 | 0.063 | 0.0626 | 0.0697 | 0.0566 | 0.0545 | 0.0659 | 0.0612 | – | – | – | – | – | – | – | – | –
V183L | 0.0621 | 0.0545 | 0.0555 | 0.0728 | – | 0.0653 | – | 0.091 | 0.0646 | 0.0475 | 0.0561 | 0.061 | 0.0636 | – | – | – | – | – | –
I167S | 0.0541 | 0.0223 | – | 0.071 | 0.0458 | 0.0575 | 0.0551 | 0.0288 | 0.0577 | – | 0.0707 | 0.0589 | 0.0571 | 0.0539 | 0.047 | 0.0594 | 0.0531 | – | –
I167Y | 0.0521 | 0.0817 | 0.0555 | 0.0671 | – | 0.057 | – | 0.0638 | – | – | 0.0732 | 0.0573 | 0.0661 | 0.0639 | – | 0.0649 | – | 0.0718 | –
N175R | 0.0572 | – | – | 0.0744 | – | 0.0526 | 0.0658 | 0.0459 | 0.0601 | 0.0548 | 0.066 | 0.0415 | 0.0581 | 0.0711 | 0.0515 | – | – | 0.0535 | 0.0644
V165G | 0.0465 | 0.0532 | 0.0771 | 0.0599 | 0.0744 | 0.0693 | 0.0504 | 0.0527 | 0.0561 | – | 0.0437 | 0.0487 | 0.0531 | 0.0443 | 0.045 | 0.056 | – | 0.0567 | –
T181P | 0.0472 | 0.0631 | 0.0482 | 0.0436 | – | 0.0557 | 0.0648 | 0.0775 | 0.0522 | 0.053 | – | 0.0623 | – | – | 0.0465 | – | 0.0359 | 0.0579 | 0.0517
S158D | 0.0511 | 0.0496 | 0.0596 | 0.0664 | 0.0492 | 0.0462 | – | – | 0.0504 | 0.0347 | 0.0558 | 0.05 | – | – | 0.0586 | 0.0604 | – | 0.0518 | –
F180G | 0.02 | 0.0441 | – | 0.0688 | 0.0657 | 0.0541 | 0.0525 | 0.0438 | 0.0686 | – | – | – | 0.0493 | – | – | 0.0583 | 0.0845 | 0.0436 | –
S171V | 0.0608 | 0.0515 | 0.0625 | – | – | – | 0.0513 | 0.0656 | 0.0454 | – | – | 0.0631 | 0.0582 | 0.0626 | 0.0592 | 0.0553 | 0.0626 | 0.0593 | 0.062
S182K | 0.0522 | 0.0472 | 0.0582 | 0.025 | 0.0598 | 0.0599 | 0.0523 | 0.0481 | 0.0634 | – | 0.0545 | 0.054 | – | 0.0598 | 0.0549 | – | – | 0.0671 | 0.0564
P184M | 0.0543 | 0.0651 | 0.0568 | 0.0596 | 0.0497 | 0.0402 | 0.0578 | 0.0474 | 0.0546 | 0.0442 | – | 0.0526 | 0.0542 | 0.0573 | 0.0512 | 0.0591 | 0.0556 | 0.0632 | 0.054
P155H | 0.071 | – | 0.0489 | 0.0562 | 0.0517 | 0.0566 | – | 0.051 | 0.0483 | 0.0479 | 0.0412 | 0.0458 | – | – | 0.049 | 0.0549 | 0.0536 | 0.0566 | 0.0532
D161Y | 0.0566 | – | – | 0.0577 | 0.0532 | – | 0.0549 | – | 0.0456 | 0.059 | 0.0515 | 0.0505 | 0.0521 | 0.049 | 0.0489 | – | 0.0515 | 0.0457 | –
D161R | 0.0538 | 0.0585 | 0.0563 | 0.0588 | – | 0.0727 | 0.0521 | – | 0.0389 | 0.0434 | 0.0488 | 0.0472 | 0.067 | – | 0.0606 | 0.0455 | 0.0362 | 0.052 | 0.0572
E189M | 0.0516 | 0.0719 | – | 0.0619 | 0.0729 | 0.0682 | 0.0606 | 0.0528 | – | 0.0635 | 0.0652 | 0.059 | 0.0723 | 0.0525 | 0.049 | 0.0587 | 0.0709 | 0.0643 | 0.0683
I164N | 0.0526 | 0.0571 | 0.0584 | – | 0.0494 | 0.0523 | 0.0472 | – | – | 0.0511 | 0.0458 | 0.0354 | – | 0.0242 | 0.0536 | – | – | 0.0482 | 0.0696
I164M | 0.0519 | 0.0563 | 0.0564 | 0.0664 | 0.0528 | 0.0591 | 0.0384 | – | 0.0605 | 0.0678 | – | 0.0536 | 0.0578 | 0.0567 | 0.0316 | 0.069 | – | 0.0619 | 0.0559
M188W | 0.0672 | 0.059 | 0.0711 | 0.0621 | 0.059 | 0.0706 | 0.0579 | 0.0741 | – | 0.0574 | 0.057 | 0.0562 | 0.0595 | 0.0582 | 0.0574 | – | 0.0556 | 0.0692 | 0.0571
G162A | 0.0388 | 0.0453 | 0.0625 | – | – | – | 0.0689 | 0.0514 | 0.0461 | – | – | 0.0695 | 0.0654 | – | 0.0382 | – | – | – | –
G166I | 0.0523 | 0.053 | 0.0498 | 0.0573 | – | 0.0806 | – | – | 0.0429 | 0.0519 | – | 0.0553 | 0.0565 | – | 0.0634 | 0.0683 | 0.0535 | 0.0528 | 0.053
G166L | 0.0286 | – | – | 0.0639 | 0.0406 | – | – | 0.0618 | – | – | – | 0.04 | – | – | – | 0.0484 | – | – | –
R160P | 0.0562 | – | 0.0439 | 0.074 | 0.0537 | 0.0617 | 0.0761 | – | 0.0591 | 0.0515 | 0.0617 | 0.0523 | 0.0691 | – | 0.0622 | 0.0586 | – | 0.0481 | 0.0595
R160S | 0.0622 | – | – | – | 0.053 | – | 0.0556 | 0.063 | 0.101 | – | – | – | 0.0627 | 0.0527 | – | – | – | 0.065 | –
S154R | 0.0636 | – | 0.0624 | 0.0683 | 0.0578 | 0.0612 | 0.0538 | 0.0669 | – | – | 0.0437 | 0.0485 | 0.0701 | – | 0.0581 | 0.0609 | – | 0.0645 | –
S154M | 0.056 | 0.0657 | 0.072 | 0.081 | 0.0617 | 0.055 | 0.0557 | 0.0642 | 0.0749 | – | – | 0.0523 | 0.0917 | – | 0.0658 | – | – | – | –
